Data published in patent publication US20120071493A1, “SUBSTITUTED 8-SULFONYL-2,3,4,5-TETRAHYDRO-1H-GAMMA-CARBOLINES, LIGANDS AND PHARMACEUTICAL COMPOSITION; METHOD FOR THE PRODUCTION AND USE OF SAME” (priority 2009, published 2012).
Like-named read-outs stand apart in the source and are kept apart here.

System: Mice of SHK line
[1] = 1 mg/kg subcutaneously 60 minutes before the test

Row | Compound | effect on disturbance of prepulse inhibition of startle caused by Apomorphine [1] | effect on disturbance of prepulse inhibition of startle caused by Apomorphine (1 mg/kg intraperitoneally 60 minutes before the test)
1 | CN1CCc2c(c3cc(S(=O)(=O)c4ccccc4)ccc3n2C)C1.Cl [1.1.1(4)•HCl, 2,5-dimethyl-8-(phenylsulfonyl)-2,3,4,5-tetrahydro-1H-γ-carboline hydrochloride] | prevented disturbance of prepulse inhibition of startle | 
2 | CN1CCc2[nH]c3ccc(S(=O)(=O)Nc4cccc(F)c4)cc3c2C1.Cl [1.2.1(3)•HCl, 2-methyl-2,3,4,5-tetrahydro-1H-γ-carboline-8-sulfonic acid 3-fluorophenyl amide hydrochloride] | prevented disturbance of prepulse inhibition of startle | 
3 | O=C(CCCN1CCC(O)(c2ccc(Cl)cc2)CC1)c1ccc(F)cc1 [Haloperidol, reference compound] |  | prevented disturbance of prepulse inhibition of startle
